Experimental data reported in PubChem BioAssay AID1159614 (National Center for Advancing Translational Sciences (NCATS), 2016).
Among all 45,000 compounds or so, about 65 (0.1%) were called active. The call rests on the fitted dose curve; in most records, active means well fitted activation curve with a large enough effect; inconclusive means small, poorly fitted or top-dose-only effect; inactive means no such curve, though single readings can be large or run the other way. Some of the results follow.

Molecular target: Galactocerebrosidase (Homo sapiens) (UniProt P54803)
Sequence of UniProt P54803 (P54803 whole entry, looked up): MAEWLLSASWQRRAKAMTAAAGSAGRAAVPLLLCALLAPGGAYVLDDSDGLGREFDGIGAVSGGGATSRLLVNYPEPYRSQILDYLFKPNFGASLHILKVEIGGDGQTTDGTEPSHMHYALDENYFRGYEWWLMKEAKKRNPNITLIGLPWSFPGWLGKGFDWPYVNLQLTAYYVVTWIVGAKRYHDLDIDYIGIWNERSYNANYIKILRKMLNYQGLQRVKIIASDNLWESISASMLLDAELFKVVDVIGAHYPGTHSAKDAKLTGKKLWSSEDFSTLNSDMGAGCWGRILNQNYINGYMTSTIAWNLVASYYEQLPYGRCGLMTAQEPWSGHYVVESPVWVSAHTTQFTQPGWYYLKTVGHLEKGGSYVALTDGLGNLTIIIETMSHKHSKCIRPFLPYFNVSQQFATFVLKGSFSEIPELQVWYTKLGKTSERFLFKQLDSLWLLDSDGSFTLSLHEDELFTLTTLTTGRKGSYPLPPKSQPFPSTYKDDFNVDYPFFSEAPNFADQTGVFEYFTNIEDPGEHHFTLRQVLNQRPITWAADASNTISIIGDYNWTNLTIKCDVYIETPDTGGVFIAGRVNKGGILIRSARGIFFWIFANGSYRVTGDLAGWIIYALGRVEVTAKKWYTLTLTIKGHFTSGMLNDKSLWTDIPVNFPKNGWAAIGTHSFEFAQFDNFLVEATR
Experiment: A Novel Cell-Based Assay to Identify Small Molecules for B -Galactocerebrosidase; further: 0% is about no effect; nearly all actives have a fitted effect of over 65% in size
Conditions: 145M-Twi-hGALC-G270D cells (Twitcher mouse brain line with human GALC G270D), HMU-beta-Gal fluorescence, 48 h; series mostly up to 57.5 µM; activation: at the top concentration
How it was run: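 Brain-derived Twitcher mouse 145M-Twi cells stably expressing human GALC-G270D or wild-type GALC, treated live, then residual GALC activity read by fluorescence of HMU-b-Gal substrate (0.1 mM final) in citrate-phosphate buffer pH 5.2 with sodium taurocholate. Signal increase indicates enhancement.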

activation, inactive:
COCCNC(=O)C1CCN(c2nc3ccccc3nc2C(F)(F)F)CC1 -12.1%
CCc1ccccc1NC(=O)c1ccc(CN2C(=O)CCn3nc(C)cc32)cc1 -8.9%
O=C(NCCC1=CCCCC1)c1ccc2c(=O)n3nc(Nc4ccccc4)sc3nc2c1 -2.16%
COc1ccc(NC(=O)c2c(NC(=O)COc3ccccc3)sc3c2CCC(C)C3)cc1 (centres undefined) -23.7%
O=C(Nc1ccccc1C(F)(F)F)c1ccc2oc(=O)c(S(=O)(=O)c3ccc(F)cc3)cc2c1 -19%
Cc1ccccc1CNC(=O)CN1C(=O)CSc2ccc(S(=O)(=O)N(C)C)cc21 -7.73%
COc1ccc(-c2noc(CCC(=O)Nc3ccc(C(F)(F)F)cc3)n2)cc1 -15.6%
COCCCNC(=O)c1cn(CCOC)c(=O)c2c1c1ccccc1n2C -9.62%
Cc1ccc(NC(=O)CSc2nnc3[nH]c(=O)cc(-c4ccccc4)n23)cc1Cl -17.3%
C#C[C@]1(O)CC[C@H]2[C@@H]3[C@H](C)CC4=C(CCC(=O)C4)[C@H]3CC[C@@]21C -10.1%
COc1ccc(CCNC(=O)Cc2c(C)c3c(cc(C)c4c(C)c(C)oc43)oc2=O)cc1 -7.39%
COc1ccccc1N1CCN(c2ncc3c(n2)CCN(Cc2ccccc2F)C3)CC1 -6.82%
Cc1ccc(CSc2oc(-c3cccs3)nc2S(=O)(=O)c2ccccc2)cc1 0.472%
CC(=O)c1ccc(N2CCN(c3ncnc4c3nc3n4CCCC3)CC2)cc1 -8.51%
CCc1ccc(OCC(=O)N(Cc2ccc(C)o2)C2CCS(=O)(=O)C2)cc1 (centres undefined) -4.98%
Cc1ccc(S(=O)(=O)N(CC(=O)NCCc2ccc(Cl)cc2)c2ccccc2C)cc1 -23.9%
CCc1ccccc1NC(=O)N1CCc2c([nH]c3ccccc23)C1c1ccc(C)cc1 (centres undefined) -11.6%
COc1ccc(CCNC(=O)c2cnn(-c3ccc(F)cc3)c2C2CCN(C(=O)OC(C)(C)C)CC2)c(OC)c1 -21%
Cc1ccc2ncc(C(=O)N3CCN(c4ccccc4F)CC3)c(=O)n2c1 -20%
CCOC(=O)N1CCc2c(sc3c2c(=O)n(Cc2ccccc2)c(=O)n3Cc2ccccc2Cl)C1 7.9%
C=CCc1c(C)nc2nc(SCC(=O)Nc3ccc(C)c(C)c3)nn2c1C -30.6%
COc1ccc(NC(=O)C2CCCN(S(=O)(=O)c3ccc4c(c3)oc(=O)n4C)C2)c(OC)c1 (centres undefined) -3.08%
Cc1cccc(CSc2nc(-c3cccs3)ccc2C#N)c1 -17.5%
O=C(COc1ccccc1F)Nc1nnc(SCc2cc(=O)c3ccccc3[nH]2)s1 -2.55%
Cc1c(NC(=O)c2cc(=O)c3ccccc3o2)c(=O)n(-c2ccccc2)n1C 8.09%
Cc1coc2c(C)c3oc(=O)c(CC(=O)NCCc4ccc(Cl)cc4)c(C)c3cc12 -7.92%
COCCCNC(=O)c1ccc(-n2c(-c3ccccc3)cc3c2CCC(C)C3)cc1 (centres undefined) -3.85%
COc1cccc(N2CCN(C(=O)c3cccn3-c3nnc(N4CCCC4)s3)CC2)c1 -21.8%
O=C(O)COc1nn(Cc2ccccc2)c2ccccc12 -10.9%
COc1cccc(-c2nnc(SCC(=O)NC3CCCCC3)o2)c1 -15.7%
COc1ccc(S(=O)(=O)Nc2ccc(-c3cn4ccsc4n3)cc2)cc1C -14.7%
COc1ccc(CCN2C(=O)c3oc4cc(C)cc(C)c4c(=O)c3C2c2ccccc2F)cc1OC (centres undefined) -1.23%
CCOc1ccc(CCNC(=O)C2CCN(C(=O)c3cc4sccc4n3CC)CC2)cc1OCC -12.2%
CC(=O)c1ccc(NS(=O)(=O)c2ccc(-c3cc(C)no3)s2)cc1 -39.5%
CCCn1c(=O)c2sccc2n2c(CCCC(=O)Nc3ccc(Oc4ccc(Cl)cc4)cc3)nnc12 -13%
Cc1ccc(NC(=O)c2ccc(CN3C(=O)CCn4nc(C)cc43)cc2)c(Cl)c1 -13.6%
Cc1cccc(NC(=O)CN2C(=O)c3cccc4cccc2c34)c1C -9.2%
CCCN1CCN(c2ncnc3sc(C(=O)Nc4c(C)cc(C)cc4C)c(C)c23)CC1 -17.3%
CCOC(=O)N1CCC2(CC1)OC(=O)C(C)=C2C(=O)NCc1cccc(F)c1 -12.7%
NC(=O)C1(N2CCCCC2)CCN(C(=O)Nc2ccc(F)cc2F)CC1 -1.18%
CCC1CN(S(=O)(=O)c2cc(-c3onc(C)c3C)ccc2C)c2cc(Cl)ccc2O1 (centres undefined) -8.12%
CCc1ccc(C(=O)c2cn(CC(=O)Nc3ccc(OC)cc3)c3cc4c(cc3c2=O)OCO4)cc1 -3.25%
Cc1cccc(C(=O)N2c3nc(-c4ccco4)nn3C3(CCCCC3)[C@@H]3CCCC[C@@H]32)c1 -8.02%
C#CCOc1ccc(C2CC(=O)Nc3c2c(C)nn3-c2nc(C)cc(C)n2)cc1 (centres undefined) -10.2%
Cc1cccc(-n2ncc3c(N4CCCC(C)C4)ncnc32)c1 (centres undefined) -18.4%
Cc1ccc(Cn2ccnc2SCC(=O)Nc2nc3ccccc3s2)cc1 -17%
Cc1cc(NC(=O)C2CCN(S(=O)(=O)c3cccc4nsnc34)CC2)ccc1Br -18.9%
NS(=O)(=O)c1ccc(NC(=O)C(=O)Nc2ccc3nc4n(c(=O)c3c2)CCCCC4)cc1 -14.8%
O=c1ccc(-c2ccccc2)nn1Cc1ccc(F)cc1Cl -13.4%
CN(C)CCCOc1nn(Cc2ccccc2)c2ccccc12 -4.37%
CCCCCCSc1nnc2c(n1)OC(C)Nc1ccc(Br)cc1-2 (centres undefined) -5.53%
CCOc1ccc2nc(N3CCCC(C(=O)Nc4cc(Cl)c(OC)cc4OC)C3)sc2c1 (centres undefined) -4.44%
Cc1c(C(=O)Nc2cccc(-c3nc4ccccc4s3)c2)oc2ccccc12 -3%
COc1ccc(CNC(=O)c2ccc(NC(=O)N3CCSc4ccccc43)cc2)cc1 -9.45%
CSc1nn(Cc2cccc(C)c2)c(N)c1S(=O)(=O)c1ccccc1 -12.6%
CCOC(=O)c1ccccc1NC(=O)COc1ccccc1-c1nnc(-c2ccccc2)o1 3.31%
CC(C)c1ccc2oc(-c3ccc(NC(=O)c4cccc(Br)c4)cc3)nc2c1 -16.2%
Cc1ccc(NC(=O)CC(C)S(=O)(=O)c2ccc3c(c2)NC(=O)CO3)c(Cl)c1 (centres undefined) -13.9%
Cc1ccc2nc(-c3ccc(NC(=O)c4ccc(S(C)(=O)=O)cc4)cc3)sc2c1 -28.9%
Cc1ccccc1Cn1c2ccccc2c2cnn(CC(=O)NC3CCC(C)CC3)c(=O)c21 (centres undefined) -18.8%
COc1cc2c(=O)n(CCC(=O)NCC3CCCO3)c(=O)n(CC(=O)Nc3ccc(C)cc3C)c2cc1OC (centres undefined) 7.98%
CCc1ccc(CNCc2c(C(=O)O)n(Cc3ccc(C)cc3)c3cc(C)ccc23)cc1 5.93%
COc1cc(NC(=O)C(CC(C)C)NS(=O)(=O)c2ccc3c(c2)CCN3C(C)=O)cc(OC)c1 (centres undefined) -8.86%
Cc1ccc2nc(NC(=O)CSc3ncc(C(=O)Nc4ccc(F)cc4)c(=O)n3C)sc2c1 -27.3%
Cc1c(CCC(=O)N2CCCCC2)c(=O)oc2cc3occ(C(C)(C)C)c3cc12 -2.08%
CCc1ccc(NC(=O)Cn2c(=O)n(-c3ccc(OC)cc3)c(=O)c3ccc(C(=O)NCc4ccc(C)cc4)cc32)cc1 -11.2%
Cc1ccc(CNC(=O)CCNS(=O)(=O)c2cccc3nsnc23)cc1 4.99%
CCn1cc(C(=O)N(C)c2ccc(C(C)C)cc2)c2cc(OC)c(OC)cc2c1=O 4.3%
Cc1nnc(SCC(=O)NCc2ccccc2Cl)c2nn(-c3ccccc3)c(C)c12 -23.3%
CCc1ccc(-n2nc(C)c3c(C)cc(=O)n(CC(=O)Nc4ccc(F)cc4C)c32)cc1 -3.14%
COc1ccc(CNC(=O)Cc2ccc(NC(=O)N3CCSc4ncccc43)cc2)cc1 -10.7%
COCCn1cc(C(=O)NCCCOC(C)C)c2c3ccccc3n(C)c2c1=O -28%
CCOC(=O)c1noc2nc(C)n(Cc3cccc([N+](=O)[O-])c3)c(=O)c12 -17.6%
Cc1ccc(Cc2nc3ccccc3nc2SCC(=O)N2CCN(c3ccc(F)cc3)CC2)cc1 -11%
Cn1c(=O)c2c(nc(N3CCOCC3)n2Cc2ccc(Br)cc2)n(C)c1=O -4.96%
CCOc1ccc(NC(=O)C2CCCN(c3nnc(C)c4c(C)n(-c5ccccc5)nc34)C2)cc1 (centres undefined) -9.96%
COc1ccccc1NC(=O)CSC1=Nc2ccccc2C2=NC(CC(=O)NCc3ccccc3)C(=O)N12 (centres undefined) -23%
CCC(C(=O)N1CCN(c2cc(C)ccc2C)CC1)n1nc(C)n2c(cc3occc32)c1=O (centres undefined) -13.4%
Cc1ccc(S(=O)(=O)N2CCc3cc(C(=O)Nc4c(F)cccc4F)ccc32)cc1 -1.73%
Cc1ccc2c(CN3CCN(C(=O)c4ccc(Br)cc4)CC3)cc(=O)oc2c1 -5.31%
CCOC(=O)Cn1c(=O)n(C2CCCCC2)c2nc(-c3ccc(C(C)C)cc3)nc(C(N)=O)c21 -11.4%
O=C(CSc1ccc(-c2ccccn2)nn1)Nc1ccc(F)cc1F -1.56%
Cc1ccc(CN2CCN(C3CCNCC3)C(=O)C2=O)cc1 -9.09%
COc1ccc(NC(=O)C2CCN(c3ccc(Sc4ccc(C)cc4)nn3)CC2)c(OC)c1 -7.92%
O=C(NCc1cccs1)C1CCN(C(=O)N2CCOc3ccc(Cl)cc32)CC1 -11%
O=C(Nc1ccc(Br)cc1)c1ccc(F)c(S(=O)(=O)N2CCc3ccccc32)c1 -3.66%
CC(=O)N1CCc2cc(S(=O)(=O)NC(Cc3ccccc3)C(=O)NCc3ccc(C)cc3)ccc21 (centres undefined) -2.74%
CNS(=O)(=O)c1cn(CC(=O)Nc2ccc(C(C)=O)cc2)cc1S(=O)(=O)NC -10.4%
CCCCNS(=O)(=O)c1ccc(C)c(-c2nnc3c4ccccc4c(C)nn23)c1 -9.12%
CC(=O)N1CCc2cc(CNC(=O)c3ccccc3Br)ccc21 -14.5%
Cc1ccc(CN2CCN(C3CCN(C(=O)Nc4ccc(C)cc4Cl)CC3)C(=O)C2=O)cc1 -9.83%
Cc1ccc(S(=O)(=O)C(CNC(=O)C(=O)NCc2ccccc2C)c2cccs2)cc1 (centres undefined) -2.62%
COc1ccc(CCNC(=O)C2CCN(S(=O)(=O)c3c(C)noc3/C=C/c3ccc(C)cc3)CC2)cc1OC -12.6%
CC(C)OC(=O)c1c(-c2ccccc2)c(-c2ccccc2)nn(C)c1=O -12.8%
